Laboratory results from the RNAGym collection of RNA variant scans (doi:10.7554/elife.90254).
Read counts are not given, so values of variants with three or more changes are uncertain.

B1: LINE1-mini (parent)
chain: GGCAGAGCUCAACACAGCGUGGCAAAGUGGCUGUGGCUAGACUGCC

Variants of: B1
Assay: self-cleavage, relative activity (ratio to wild type); higher = more cleavage; in vitro, sequencing; the parent is a self-cleaving ribozyme

| Variant | self-cleavage |
| --- | --- |
| GGCAAAGAUCAACACAGCGUGGCAAAGUUGCUUUGGCUAGACUGCC [G5A C8A G29U G33U] | 0.2 |
| GGCAAAGCUAAACACAGUGUUGUAAAGUGGCUGUGGCUAGACUGCC [G5A C10A C18U G21U C23U] | 0.04 |
| GGCAAAGCUACACACAGCGACGCAAAGUGGCUGUGCCUAGACUGCC [G5A C10A A11C U20A G21C G36C] | 0.01 |
| GGCAAAGCUCAACCCAGCGUGGCAAAGUGGCCGUGGCUAGACAGCC [G5A A14C U32C U43A] | 0.21 |
| GGCAAUGCUUUACACAGCGUGGCAUAGUGGCUGUGGCUAGACUGCC [G5A A6U C10U A11U A25U] | 0.01 |
| GGCAAAGAUCAACACAGCGUAGCAAAGUGGCUGUGGCUAGACUGCC [G5A C8A G21A] | 2.34 |
| GGCUGAGCUCAACACAGCGUGGCAAAGUGGCUGUGGCUAAAGUGCC [A4U G40A C42G] | 0.02 |
| GGCUGAGCUCAACACAGCGUGGCAAAGUGGCUGUGGCUAUACAGCC [A4U G40U U43A] | 0.06 |
| GGCUGAGCUCAACACAGCGUGGCAAAGGGGCUGUGGCUAGACUGCG [A4U U28G C46G] | 0.04 |
| GGCUGAGCACAACGCAGCGUGGCAAAGUGGCUGUGGCCGGACUGCC [A4U U9A A14G U38C A39G] | 0.09 |
| GGCAAAGCUCGACACAGCGUGCCAAAGUGGCGGUGGCUAGCCUCCC [G5A A11G G22C U32G A41C G44C] | 0.02 |
| GGCUGAGCGCAACACAGCAUGGCAAAGUGGCUGUGGCAAGACUGGU [A4U U9G G19A U38A C45G C46U] | 0.12 |
| GGCAAAGGUCAACACAGCGAGGCAGAGUGGCUUUUGCUAGACUGCC [G5A C8G U20A A25G G33U G35U] | 0.02 |
| GGCAAAGCUCAACGCAGCGUGGCAAAGAGGCUGUGGCUAGACUGCC [G5A A14G U28A] | 0.1 |
| GGCUGAGCAGAACACAGCGUAGCAAAGUGGCUGUGGCUAGACCGCC [A4U U9A C10G G21A U43C] | 0.03 |
| GGCAAAGAUCAACACAGCGUGACAAAGUGGCUGUGGAUAGAAUGCC [G5A C8A G22A C37A C42A] | 0.04 |
| GGCAAAGCUCAACACGGCGUGGCAAAGUAGCUGUGGCUAGACAACC [G5A A16G G29A U43A G44A] | 0.01 |
| GGCAAUGCUCUACACAGCGUGGCAAAGUGGCUGUGGCUAGAUUGCC [G5A A6U A11U C42U] | 0.07 |
| GGCUGAGCUCAACACAGCGUGGCAAAGUGGCGGUGGCUACACUGCC [A4U U32G G40C] | 0.07 |

| Variant | self-cleavage |
| --- | --- |
| GGCUGAGCUCAACACAGCGUGGCAAAGUGGCUGGGGUUAGACUGCC [A4U U34G C37U] | 0.01 |
| GGCUGAGCUCAACACAGCGUGGCAAAGUGGCUUUGGCUCGACUGCC [A4U G33U A39C] | 0.04 |
| GGCAAAGGUCGACACAGCGUGGCAAAGUGGUUGUGGCUAGACUGCC [G5A C8G A11G C31U] | 0.01 |
| GGCUGAGCUCAACACAGCGCGGGCAAGUUGCUGUGGCUAGGCUGCC [A4U U20C C23G A24C G29U A41G] | 0.11 |
| GGCUGAGCCCAACACAUCGUGGCAACGUGGCUGUAGCUGGACUGCC [A4U U9C G17U A26C G35A A39G] | 0.01 |
| GGCAAAGCUCAACACAGCGUGGCUAAGUGGCUGUGGCUAGACUACC [G5A A24U G44A] | 0.06 |
| GGCAAAGCUCAACACAGCGUGGCAAGUUGGCUGUGGCUAGACUGCC [G5A A26G G27U] | 0.18 |
| GGCAAAGGUCAACACAACGUGGCAAAGUGGCUGUGGCUAGACUGCC [G5A C8G G17A] | 0.03 |
| GGCAAAGAUCAACACAGCGUGGCAAAGUGGCUGUGGCAACACUGCC [G5A C8A U38A G40C] | 0.82 |
| GGCAAAGCUCGUCACACCGUGGCAAAGUGAAUGUGGCUAGACUGCC [G5A A11G A12U G17C G30A C31A] | 0 |
| GGCAAAGCUCAACACGUCCUGGCAAAGUGGCUGUAUCUAGACCGUC [G5A A16G G17U G19C G35A G36U U43C C45U] | 0.1 |
| GGCUGAGCUCAACACAGCGUGGCAAAGUGGCUGUGCCUAGACAGCC [A4U G36C U43A] | 0.01 |
| GGCUGAGCUCAACACAGCGUGGCAAAGUGGCUGUUGCUAGACUCCC [A4U G35U G44C] | 0.05 |
| GGCAAAGAUCAACACAGCGUGGUAAAGUGGCUGUGGCUUGACUACC [G5A C8A C23U A39U G44A] | 0.22 |
| GGCAAAGCUCACCAUAGCGUGGCAACGUGGCUGUGGCUAGACUACC [G5A A12C C15U A26C G44A] | 0.04 |
| GGCAAAGAUCAACACAGCGUGGCAAAUUGGCUGUGGCUAGACUGGC [G5A C8A G27U C45G] | 0.13 |
| GGCAACGCUCAACACAGAAUGGCAAAGUGGCUGUGGCUAGGCUGCC [G5A A6C C18A G19A A41G] | 0.71 |
| GGCUGAGCGCAACACAGCGUGGCAAAGUGGCUGUGGCCAGACUGAC [A4U U9G U38C C45A] | 0.01 |
| GGCAAUGCUCAACACAGCGUGGCAAAGUGGCUGAGGCUAGACUGCC [G5A A6U U34A] | 0.04 |

| Variant | self-cleavage |
| --- | --- |
| GGCAAGGAUCAACACAGCGUGGCAAAGUGGCUGUGGCAAGACUGCC [G5A A6G C8A U38A] | 0.02 |
| GGCAAUGCUCAACACAGAGUGGCAAAGUGGCUGUGGCUAGACUGCC [G5A A6U C18A] | 0.15 |
| GGCAACGCUCAACACAGCGUGGCAAAGACGCUGUGGCUAGACUGCC [G5A A6C U28A G29C] | 0.14 |
| GGCUGAGCAUAACACAGCUUGGCAAAGUGGCUGUGGCUAGACCGCC [A4U U9A C10U G19U U43C] | 0.01 |
| GGCUGAGCUCAACACAGCGUGGCAAAGUGGCUGAGGCUAUAUUGCC [A4U U34A G40U C42U] | 0.08 |
| GGCUGAGCUCAACACAGCGUGGCAAAGUGGCUGCGCCUUGACUGCC [A4U U34C G36C A39U] | 0.09 |
| GGCAAAGCUCAACCCAGCGUGGCAAAGUGGUUGUGGGUUGAGUGCC [G5A A14C C31U C37G A39U C42G] | 0 |
| GGCAAAGCUCAGAACAGUGUGGCAAAGUGACUGUAGCUAGACUGCC [G5A A12G C13A C18U G30A G35A] | 0.14 |
| GGCUGAGCACAAAACAGAGUGGCAAAGUGGCUGUGGCUAGACUGCC [A4U U9A C13A C18A] | 0.1 |
| GGCAAAGCUCUACACAGCGUGGCUAAGUGGCUGUGGCUAGACUGCC [G5A A11U A24U] | 0.03 |
| GGCAAAGCUCCAAGCAGCGUGGCAAAGUGGCUAUGGCUAGACUGCC [G5A A11C C13A A14G G33A] | 0.02 |
| GGCAAAGAUGAACACAGCGUGGCAAAGUGGGUGUGGCUAGACUGCC [G5A C8A C10G C31G] | 0.04 |
| GGCAACGCUCAACACCCCGUGGCAAAGUGGCUGUGGCUAGACUGCC [G5A A6C A16C G17C] | 0.17 |
| GGCAACGCUCAACACAGCGUGGCAAAGUGUCUGUGGCUCGAAUGCC [G5A A6C G30U A39C C42A] | 0.06 |
| GGCAAUGCUCAAGACAGCGUGGCAAAGUGGCUGUGGCUAGACUGCC [G5A A6U C13G] | 0.05 |
| GGCAAAGCUCAACACUGCGUGGCAAAGUGGCUGUGGCUAUACUGCC [G5A A16U G40U] | 0.05 |
| GGCAAAGCUCAACUCAACGUGGGAAAGUGGCUGUGGCUCGACUCCC [G5A A14U G17A C23G A39C G44C] | 0.04 |
| GGCAACGCCCAACACAGCGUGGCAAAGUGGCUGUGGCUAGACUGCA [G5A A6C U9C C46A] | 0.13 |
